Test results: publication PMC12040169 (PLOS Biology, 2025)
Like-named read-outs stand apart in the source and are kept apart here. This is one part of the list.

Tested on: T1, C. trachomatis L2/434/Bu expressing GFP (CTL2-GFP)
T1 construct: L2/434/Bu GFP intracellular growth in HeLa cells
Parameters: species or system HeLa; C. trachomatis total inclusion area by high-content imaging, normalised to DMSO
Method in brief: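 Bulk GFP and resorufin signals were read first. Wells were then fixed, stained with Hoechst and imaged to detect GFP inclusions and host nuclei. MICs followed the previously described calculation.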

[1] = total inclusion area; 28.5 h, 10 µM; inhibitor

SMILES | % of control remaining [1] | % of control remaining (total inclusion area, 28.5 h, 10 µM, inhibitor)
CN1CCN([C@H]2[C@@H]3OC[C@@H](O3)[C@@H](NCc3ccc(N(C)C)cc3)[C@@H]2O)CC1 [CBK288824] | 112.005 | –
NC(=S)c1c(Cl)cc(C(F)(F)F)cc1Cl [CBK011349] | 11.1295 | –
COc1ccc(C[C@@H]2NC(=O)[C@H]3CN(C(=O)c4cccc(F)c4)CCN3C2=O)cc1 [CBK289604] | 107.331 | –
COc1ccc([C@@]23CC[C@@H](NC(=O)Nc4cc(F)c(C#N)cc4F)C[C@@H]2N(C)CC3)cc1OC [CBK073979T] | 102.663 | –
C=CCn1c(Cc2csc(NC(=O)c3ccc(Cl)cc3)n2)n[nH]c1=S [CBK295318] | 100.976 | –
CCSC(C)CC1C/C(=N/O)c2c(C)noc2C1 (stereo not drawn) [CBK021455] | 87.1422 | –
CCOC(=O)Cn1cnc2nc3c(cc2c1=O)CC(C)CC3 (stereo not drawn) [CBK294402] | 114.823 | –
Nc1nnc(SCC(=O)Nc2ccc3c(c2)OCCO3)s1 [CBK266331] | 82.1313 | –
O=C(NCc1ccco1)[C@@H]1C=CCN1C(=O)Nc1ccccc1Cl [CBK284269] | 89.0004 | –
c1ccc(-c2ccc(OCCCCN3CCNCC3)cc2)cc1 [CBK266028G] | 94.0548 | –
CCC(NC(=O)Nc1ccccc1C(=O)O)(C(F)(F)F)C(F)(F)F [CBK268000] | 102.857 | –
CCOc1ccsc1C(=O)N1CCN(CCc2ccccc2)CC1 [CBK200229] | 119.229 | –
Cc1ccc(S(=O)(=O)NCC(=O)Nc2ccc3cc(Br)cnc3n2)cc1 [CBK067429] | 67.4962 | –
CC(NC(=O)c1cc(C(F)(F)F)[nH]n1)c1ccccn1 (stereo not drawn) [CBK281712] | 99.3356 | –
O=C(Nc1cccc(S(=O)(=O)N2CCOCC2)c1)c1cc2ccccc2oc1=O [CBK268170] | 64.5902 | –
CCC(CN1CCCC1)NC(=O)Cc1cc(C)ccc1OC (stereo not drawn) [CBK282759] | 118.421 | –
O=C(Cc1ccccc1)N1CCCC1c1n[nH]cc1-c1ccncc1 (stereo not drawn) [CBK283435] | 118.437 | –
COC(=O)N1CCc2ccc(N3C[C@H](CNC(C)=O)OC3=O)cc2CC1 [CBK022485] | 7.088 | –
COC(=O)CCCN1CCCC12CCc1[nH]c3ccccc3c1C2 (stereo not drawn) [CBK107798T] | 86.7261 | –
C[C@@H](Nc1nc(-c2cccc3ncccc23)cnc1N)c1ccccc1 [CBK063755] | 60.089 | –
CC(=O)N[C@H](C(=O)N1CC[C@@H]2NC(=O)[C@@H](Cc3ccccc3)NC(=O)C3(C/C=C/C[C@@H]2C1)CCOCC3)[C@@H](C)O [CBK292186] | 110.449 | –
CC[C@H]1C[N@@]2CC[C@H]1C[C@@H]2CNS(=O)(=O)c1ccc(NC(C)=O)cc1 [CBK288745] | 105.136 | –
CC(C)NC(=O)N(C)C1CCN(c2ncnc3ccccc23)CC1 [CBK306224] | 16.0813 | –
COc1ccc(-c2ccnc(N[C@H]3CO[C@H]4[C@@H]3OC[C@@H]4NC(=O)C3CCCCC3)n2)cc1 [CBK289527] | 112.543 | –
O=C(O)CCN1C(=O)C(=Cc2ccc(OCc3ccccc3)cc2)c2ccccc2C1=O [CBK297552] | 103.471 | –
COc1ccc(CCCN2CCC(C(=O)NC(=O)Nc3cc(OC)c(OC)c(OC)c3)CC2)cc1 [CBK034855] | 98.7678 | –

SMILES | % of control remaining [1] | % of control remaining (total inclusion area, 28.5 h, 10 µM, inhibitor)
CCC(Sc1nc(=O)cc(-c2ccccc2)[nH]1)C(=O)O (stereo not drawn) [CBK287135] | 95.3402 | –
CC(=O)NC[C@H]1CN(c2ccc(-c3nnc(CCC#N)s3)c(F)c2)C(=O)O1 [CBK017926] | 0.07508 | –
Cc1ccccc1Nc1nnc(-c2ccc(C(=O)NCCO)cc2)c2ccccc12 [CBK263743] | 83.3014 | –
CN1C(=O)C2(CC(=O)N(CCC3CCCCC3)C2=O)c2cc(Cl)ccc21 (stereo not drawn) [CBK075231] | 87.8293 | –
O=C(NC1CCc2ccccc21)N1CCN(c2ccccc2)CC1 (stereo not drawn) [CBK155208] | 109.4 | –
CC(C)(C)C1=CC2=NC3(CCC3)C3C[C@](O)(CO)[C@@H](O)[C@@H]3N2O1 (stereo partly drawn) [CBK303262] | 84.4442 | –
COc1ccc(C(=O)N[C@H]2C[C@@H]3C(=O)N[C@H]4CCN(C(=O)C5CCC5)[C@@H]4C(=O)N3C2)cc1 [CBK289266] | 105.894 | –
CC(C(=O)N1C2CCC1CC(O)(c1ccco1)C2)c1ccccc1 (stereo not drawn) [CBK284112] | 98.4315 | –
O=C(O)C1(Cc2ccc(-c3cccs3)cc2)CCNC1 (stereo not drawn) [CBK281679] | 78.6768 | –
COCc1cn(C2CCN(c3cc(-n4cc(C)cn4)ncn3)CC2)nn1 [CBK307388] | 53.8591 | –
NS(=O)(=O)c1ccc(CN2CCCC2=O)cc1 [CBK288420] | 114.41 | –
CC(C)(C)NC(=O)N1CCC(Nc2nccc(C(F)(F)F)n2)CC1 [CBK028788] | 37.2992 | –
Cc1nn(C)c(C(=O)Nc2sc3c(c2C#N)CCC(C)C3)c1Br (stereo not drawn) [CBK304212] | 38.9353 | –
Nc1nc(-c2ccc3c(c2)CCC(=O)N3)cs1 [CBK086133] | 99.811 | –
Oc1ccc2nc(N[C@H]3CC4CCC3C4)sc2c1Cl (stereo partly drawn) [CBK024348G] | 27.7403 | –
CCc1nc2ccc(C(=O)N3CCN(C(=O)c4ccco4)CC3)cn2c1N(C)Cc1ccncc1 [CBK145635] | 103.99 | –
CC(NCCCN(C)C)=C1C(=O)c2ccccc2C1=O [CBK262674] | 90.859 | –
COc1cc([C@@]23CC[C@@H](NC(=O)Nc4cccc(Cl)c4)C[C@@H]2N(C)CC3)cc(OC)c1OC [CBK039212] | 95.8448 | –
Cc1cc(OC(C)C(=O)Nc2ccccc2C(=O)N2CCCCC2)ccc1Cl (stereo not drawn) [CBK269696] | 95.7264 | –
N#CCCN(C(=O)NCc1cccnc1)C1CCCCC1 [CBK156355] | 147.085 | –
COc1ccccc1C(=O)Nc1ccc([C@@H](O)[C@H]2COCC(=O)N2)cc1 [CBK289688] | 114.761 | –
c1csc(COc2nccnc2-c2cc3ccccc3s2)c1 [CBK106786] | 79.1752 | –
CN(C)c1ccccc1-c1cc(N2CCN(S(=O)(=O)c3ccc(Cl)cc3)CC2)ncn1 [CBK037039] | 74.5462 | –
N#CC1=C(N)Oc2[nH]nc(-c3ccc4ccccc4c3)c2C1c1cn(CC(N)=O)nc1-c1ccccc1 (stereo not drawn) [CBK266624] | 89.5589 | –
CC(C(=O)Nc1ccc2c(c1)OCO2)N(c1ccc(Cl)cc1)S(C)(=O)=O (stereo not drawn) [CBK268595] | 116.78 | –
CC1(CNC(=O)c2cn3cc(Cl)ccc3n2)COC1 [CBK281748] | 115.37 | –

SMILES | % of control remaining [1] | % of control remaining (total inclusion area, 28.5 h, 10 µM, inhibitor)
CC(C)CN1CCCN(S(=O)(=O)c2ccc(C(F)(F)F)cc2Cl)CC1 [CBK062943] | 103.531 | –
O=C(O)CCCNS(=O)(=O)/C=C/c1ccccc1 [CBK287170] | 88.6773 | –
CC(C)(C)OC(=O)N1CCC[C@@H](C(=O)c2cccs2)C1 [CBK284310] | 73.7887 | –
COc1ccc2[nH]cc(CCNC(=O)Cc3ccsc3)c2c1 [CBK116205] | 100.592 | –
COc1ccc(C2(CN3CCC(NC(C)=O)CC3)CC2)cc1 [CBK285357] | 86.1326 | –
O=S(=O)(Nc1ccc2c(ccn2Cc2ccccc2)c1)c1cc(C(F)(F)F)cc(C(F)(F)F)c1 [CBK159540] | 45.518 | –
Cc1ccc(-c2ccc(N3CCCC(C(=O)O)C3)nn2)cc1C (stereo not drawn) [CBK300513] | 73.4175 | –
Cc1ccc(S(=O)(=O)NC[C@H]2O[C@@H](CC(=O)N3CCc4ccccc43)[C@H](O)[C@@H]2O)cc1 [CBK288917] | 99.6121 | –
Cc1sc2nc(C(C)Nc3ccc4[nH]c(=O)[nH]c4c3)[nH]c(=O)c2c1C (stereo not drawn) [CBK297915] | 89.6949 | –
O=C1NC2(CCNCC2)Oc2ccc(-c3cccnc3)cc21 [CBK086611] | 108.385 | –
Cc1c(C(=O)O)sc2nc(SCC(=O)NCc3ccccc3)[nH]c(=O)c12 [CBK301214K] | – | 111.653
CC(=O)N1CCN(Cc2c(C3CCCC3)[nH]c3ncccc23)CC1 [CBK285339] | 96.4254 | –
O=C(Cc1ccc(F)cc1Cl)N1CCC(O)(c2ccccn2)CC1 [CBK283755] | 97.1373 | –
NC(=O)c1ccccc1NC(=O)COc1ccccc1 [CBK262599] | 105.499 | –
COc1ccc2nc(C(=O)O)sc2c1 [CBK026523N] | 97.5368 | –
CN1CC(CO)CCC1Cc1c[nH]c2ccccc12 (stereo not drawn) [CBK011468] | 97.4221 | –
Cn1c(N2CCOCC2)cc(=O)c2ccccc21 [CBK007775] | 103.126 | –
Cc1cc(NS(=O)(=O)N2CCOCC2)no1 [CBK269894] | 111.039 | –
CN1CCC[C@H]1C(=O)N1CCN(C(=O)c2ccco2)CC1 [CBK144449] | 102.152 | –
CC(=O)Nc1onc(C)c1-c1nc(-c2ccc(Cl)cc2Cl)cs1 [CBK067735] | 76.5193 | –
COc1cc(CNc2cncc(-c3cccs3)n2)cc(OC)c1OC [CBK065526] | 89.767 | –
Cc1cc(=O)oc2cc(OC(C)C(=O)NCC(=O)O)ccc12 (stereo not drawn) [CBK286829] | 99.5757 | –
O=C(c1ccco1)N1CCN(c2cncc(-c3ccc4ccccc4c3)n2)CC1 [CBK065184] | 103.155 | –
c1ccc(Nc2nc3nonc3n3cnnc23)cc1 [CBK287278] | 96.1824 | –
CC1CCN(S(=O)(=O)c2ccc(NC(=O)C3=COCCO3)cc2)CC1 [CBK295332] | 115.931 | –
COC(=O)[C@@H](C)NC(=O)[C@H]1CN(C(=O)c2cccnc2)CCN1C(=O)NC(C)C [CBK289630] | 105.377 | –
